Measured values reported in ChEMBL document CHEMBL4888484, “Replenishing the malaria drug discovery pipeline: Screening and hit evaluation of the MMV Hit Generation Library 1 (HGL1) against asexual blood stage Plasmodium falciparum ,using a nano luciferase reporter read-out” (2022).
Screen size: about 150,000 compounds; about 540 (0.36%) showed an effect of 50% or more. This is one part of the list.

What follows are compounds tested on Plasmodium falciparum (assay: Primary screen in NF54 nanoGlo assay, in single point, at 2uM, 72h; a lower Z score goes with more inhibition). Conditions: timepoint 72 hour.
Assay type: functional, Erythrocyte

Row | Compound | % Inhibition [%] | Z score
1 | NC(=O)c1cnn(CCc2noc(C3(c4ccccc4)CC3)n2)c1 | -5 | 0.77
2 | Cc1nc(N[C@H]2CCCC[C@@H]2OCc2ccccc2)c2cccnc2n1 | -2 | 0.37
3 | O=C(Nc1ccc(Cl)c(Cl)c1)c1no[n+]([O-])c1C(=O)Nc1ccc(Cl)c(Cl)c1 | -4 | 0.6
4 | Cc1cc(-c2c(-c3ccccc3)[nH]c3c2c(=O)n(C)c(=O)n3C)c(C)s1 | -13 | 1.97
5 | CC(C)(C)c1ccc(OCc2nnc3n2CCOC3)cc1 | -12 | 1.82
6 | COc1cc(C(=O)N(C)c2ccc(OC(=S)N3CCOCC3)cc2)cc(OC)c1OC | -2 | 0.37
7 | Cc1noc(C)c1[C@@H](C)CNc1cc(C#N)ccn1 | -13 | 2.29
8 | COc1ccc(NC(=O)Cn2cnc3c(c2=O)CN(Cc2ccc(C)cc2)CC3)cc1 | -4 | 0.65
9 | NC1=C(c2nc3ccccc3[nH]2)C(=O)CN1c1ccccc1 | -1 | 0.08
10 | Cc1ccc(C(=O)N(C)CCC2CCOCC2)s1 | -8 | 1.36
11 | CCOc1ccc([C@H]2CC(=O)N(Cc3ccccc3C)c3c2c(C)nn3-c2nc(C)cc(C)n2)cc1 | -10 | 1.41
12 | Cc1ccc2c(c1)CCCN2C(=O)C1C2C=CC(O2)C1C(=O)O (stereo unspecified) | -2 | 0.3
13 | COc1ccc(OC)c(CN2CCc3[nH]cnc3[C@@H]2c2ccc(C)o2)c1 | -16 | 2.07
14 | CN(C)c1ncccc1CNc1ccc(C(=O)Nc2ccccc2)nn1 | -22 | 1.99
15 | CCn1cc(C2CCN(C(=O)NCc3nnc([C@@H]4CCCO4)[nH]3)CC2)cn1 | 1 | -0.24
16 | Cc1ccc(N2CCCN(Cc3ccc(C(F)(F)F)cc3)C2=O)c(NC(=O)c2ccc(F)cc2F)c1 | -5 | 0.78
17 | CCCCNc1ccc(S(=O)(=O)N2CCCC2)cc1NC(=O)COc1ccccc1OCC | -14 | 1.94
18 | COc1ccc(CN(Cc2ccco2)C(=O)CC(C)C)cc1OCc1nc(CO)cs1 | 28 | -3.42
19 | CCn1cncc1CNC1CCN(c2ccc3c(c2)CCC3)CC1 | -14 | 1.42
20 | Oc1cccc(-c2cc(C[C@@H]3CC[C@H](O)[C@@H](CNC4CCC4)O3)no2)c1 | 4 | -0.67
21 | Cn1ccc(COC(=O)Cc2cccc(Cl)c2)n1 | -6 | 0.58
22 | O=C(Cn1ccn2cc(Br)cc2c1=O)Nc1ccc(Cl)c(Cl)c1 | -4 | 0.61
23 | O=C1C[C@H](c2ccc(O)c(Cl)c2)c2cnn(Cc3ccccc3)c2N1 | 0 | 0.02
24 | CN(C)C[C@H]1CN(CC(=O)N(C)Cc2cccs2)CCO1 | -7 | 0.72
25 | CCC(C)(C)NC(=O)[C@H](C)NC(=O)c1ccc(Br)o1 | -9 | 0.8
26 | CCc1nnc(CN(C)Cc2c(C)nn(C)c2Cl)o1 | 2 | -0.19
27 | N[C@@H](CCC(=O)O)c1ccc(Br)cc1 | -11 | 1.67

Row | Compound | % Inhibition [%] | Z score
28 | c1coc(CCc2nnc3n2CCOC3)c1 | 0 | -0.02
29 | CCn1nc(C(=O)O)c(C)c1Oc1ccc(NC(=O)CC(C)C)cc1S(=O)(=O)NC(C)(C)C | 3 | -0.44
30 | Cc1nc2c(C(=O)NC[C@H]3CCN(c4cnn(C)c(=O)c4)C3)cccc2[nH]1 | -15 | 1.89
31 | COC1CCN(C2CN(C(=O)NC(c3ccccc3)c3ccccc3)C2)CC1 | -12 | 2.23
32 | CC(C)c1noc(NC[C@H]2CCCCS2(=O)=O)n1 | -2 | 0.2
33 | CC(=O)N1CCO[C@H](C(=O)N2CCN(c3cccc(F)c3)CC2)C1 | 1 | -0.24
34 | Cc1ncc(CNC(=O)N2CC[C@H](OCCC(C)C)C2)s1 | -8 | 0.93
35 | CCc1cccc2c([C@H](CC(=O)NCCN3CCOCC3)c3ccc(F)cc3)c[nH]c12 | 3 | -0.38
36 | Cc1ccc2oc(CN(CCC#N)CCC#N)cc2c1 | -7 | 1.24
37 | Cn1cc([C@H]2OCC[C@@H]2CNc2ncnc3c2ncn3C2CC2)cn1 | 2 | -0.26
38 | CCN1CCN(C(=O)CCC2CCN(C(=O)c3cc(C)[nH]c(=O)c3)CC2)CC1 | -3 | 0.53
39 | O=C(Nc1nnc(-c2ccc3c(c2)OCO3)s1)[C@@H]1CCCN1C(=O)Nc1ccc(Cl)cc1Cl | 4 | -0.6
40 | COCCn1c(N)c(N(Cc2ccccc2)C(=O)c2occc2C)c(=O)[nH]c1=O | -4 | 0.62
41 | Cc1nc(C(=O)N[C@H]2CCc3cn(C(C)C)nc3C2)c(C)o1 | -8 | 1.45
42 | CC(C)C(=O)NCCNC(=O)C1=NN(C)C(=O)CC1 | -6 | 0.88
43 | CCc1cc(C#N)ccc1NC(=O)NC[C@H]1COCCO1 | 0 | 0
44 | Cc1ccc(CN(CCO)C(=O)COC[C@H]2CCCCO2)s1 | 5 | -0.74
45 | Cc1ccc(C2CCN(S(C)(=O)=O)CC2)cn1 | -11 | 1.08
46 | CCC(NC(=O)c1cc(C(C)(C)C)nc(=O)[nH]1)[C@H]1C[C@@H](O)C1 (stereo partly specified) | -5 | 0.84
47 | O=C(c1ccccc1)c1c[nH]c(C(=O)NCc2cccnc2)c1 | 30 | -3.88
48 | CS(=O)(=O)N1CCC(C(=O)N2CC(c3nc(-c4ccccc4)no3)C2)CC1 | -10 | 1.91
49 | Cc1noc(C)c1CN1C[C@H]2CC[C@@H](C1)N(Cc1snnc1C(C)C)C2 | -3 | 0.4
50 | CCn1cc(-c2ccccc2)cc1C(=O)N[C@@H](C)c1ccccn1 | -7 | 1.17
51 | O=C1CCC(=O)N1c1cccc(S(=O)(=O)N2CCOCC2)c1 | -9 | 1.12
52 | Cn1c(C(=O)N2CCCC2)nnc1N1CCC(Oc2ccccc2Cl)CC1 | -13 | 2.32
53 | Cc1ncsc1CN1CCC(n2cc(Br)cn2)CC1 | -15 | 1.6
